Target: the molecule itself
Test: SEC; Superdex-200 column; folded (refolded in 40 mM HEPES·KOH pH 7.5, ~1 mg/mL, 25 °C, 3 h) Hsp27 samples; calibrated with standard proteins

B1: semisynthetic wild type human heat shock protein 27 (Hsp27) 8a (natural protein)
chain: not shown
notes: human small heat shock protein Hsp27, […] ([…] synthetic, […] recombinant); Cys32 used for ligation turned back to Ala32 by desulfurization, native Cys137 turned to Ala at the same time; The His tag stood on the recombinant fusion construct 4 of segment […] and was removed by TEV protease before ligation; also called WT 8a; WT variant 8a; not shown: His tag, N-terminal, cleaved
binding result: binds

Source: paper PMC10442856, “Site-Specific Glycation of Human Heat Shock Protein (Hsp27) Enhances Its Chaperone Activity” (ACS Chemical Biology, 2023)
